According to PubChem BioAssay AID1159614 (National Center for Advancing Translational Sciences (NCATS), 2016):
Out of some 45,000 compounds screened, about 65 (0.1%) were called active. Calls follow the shape of the dose curve; as a rule, active = well fitted activation curve with a large enough effect; inconclusive = small, poorly fitted or top-dose-only effect; inactive = no such curve, though single readings can be large or run the other way. The list shows a part of the results.

target: Galactocerebrosidase (Homo sapiens) (UniProt P54803); test: A Novel Cell-Based Assay to Identify Small Molecules for B -Galactocerebrosidase; conditions: 145M-Twi-hGALC-G270D cells (Twitcher mouse brain line with human GALC G270D), HMU-beta-Gal fluorescence, 48 h; series mostly up to 57.5 µM; activation: at the top concentration; also: 0% is about no effect; nearly all actives have a fitted effect of over 65% in size
In short: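 Brain-derived Twitcher mouse 145M-Twi cells stably expressing human GALC-G270D or wild-type GALC, treated live, then residual GALC activity read by fluorescence of HMU-b-Gal substrate (0.1 mM final) in citrate-phosphate buffer pH 5.2 with sodium taurocholate. Signal increase indicates enhancement.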

Chain of UniProt P54803 (P54803 whole entry, looked up): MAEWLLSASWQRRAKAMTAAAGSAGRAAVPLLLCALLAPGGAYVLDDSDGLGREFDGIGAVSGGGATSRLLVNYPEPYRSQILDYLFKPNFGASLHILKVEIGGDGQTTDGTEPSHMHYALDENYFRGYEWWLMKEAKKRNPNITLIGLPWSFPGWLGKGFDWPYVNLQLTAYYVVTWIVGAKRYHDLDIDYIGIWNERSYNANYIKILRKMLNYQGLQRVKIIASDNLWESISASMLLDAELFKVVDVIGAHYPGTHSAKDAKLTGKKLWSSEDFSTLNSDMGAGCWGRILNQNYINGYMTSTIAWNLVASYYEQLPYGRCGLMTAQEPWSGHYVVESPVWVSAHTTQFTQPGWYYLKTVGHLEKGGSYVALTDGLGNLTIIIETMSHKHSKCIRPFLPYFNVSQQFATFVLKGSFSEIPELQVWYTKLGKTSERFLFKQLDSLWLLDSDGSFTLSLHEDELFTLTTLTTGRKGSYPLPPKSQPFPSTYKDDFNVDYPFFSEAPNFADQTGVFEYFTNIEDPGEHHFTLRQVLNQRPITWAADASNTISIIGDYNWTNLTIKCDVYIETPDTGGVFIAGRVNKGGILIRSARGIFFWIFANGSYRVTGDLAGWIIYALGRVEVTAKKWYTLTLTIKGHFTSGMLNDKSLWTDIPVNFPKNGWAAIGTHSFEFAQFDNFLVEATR

activation, inactive:
COc1cccc(CNC(=O)C2Cc3cc(S(=O)(=O)N4CCCCCC4)ccc3N2C(C)=O)c1 (stereo unspecified) -11%
CCOC(=O)C1CCN(C(=O)c2ccc3c(c2)sc2nc(-c4ccccc4)cn23)CC1 -17.3%
Cn1nc(C(=O)N2CCN(c3cccc(Cl)c3)CC2)c2c1-c1ccccc1S(=O)(=O)C2 -10.3%
CCCS(=O)(=O)c1ncc(Cl)c(C(=O)Nc2c(C(=O)c3ccccc3)oc3ccccc23)n1 -22.7%
CCCCCn1c(NCc2ccccc2OC)nc2ccccc21 0.765%
NCCCNCCSP(=O)(O)O -17.9% [at 11.5 µM]
CCc1cc2c(cc3c(=O)n(CC(=O)N4CCC(C)CC4)nc(CC)n32)s1 -14.4%
O=C1CCc2cc(S(=O)(=O)NCc3ccc(F)cc3)cc3c2N1CC3 -16.9%
COc1ccc(C(=O)COC(=O)c2cc(-c3ccccc3)nc3c(C)cccc23)cc1 -8.69%
CC(=O)N1CCCc2ccc(NS(=O)(=O)c3ccc(C)c(C)c3)cc21 -15.8%
CCC(=O)N1CCc2cc(Br)cc(S(=O)(=O)N3CCCC(C(=O)NCc4cccc(OC)c4)C3)c21 (stereo unspecified) 6.35%
Cc1nc2c(-c3ccccc3)c(C)nn2c(C)c1CCC(=O)N1CCN(c2ccccc2)CC1 -25.3%
CCc1ccc(-n2c(=O)c3ccc(C(=O)NCCc4ccccc4)cc3n(CC(N)=O)c2=O)cc1 -2.51%
O=C(Nc1nnc(S(=O)(=O)N2CCOCC2)s1)c1cccc(F)c1 -25.5%
CCS(=O)(=O)N1CCc2cc(C(=O)Nc3ccc(C)c(Cl)c3)ccc21 -6.94%
CCCCOc1ccc(C(=O)NCC2(N3CCN(C)CC3)CCCCC2)cc1 -1.87%
COc1ccc(Cn2cc(C(=O)c3ccc(OC)cc3)c(=O)c3cc4c(cc32)OCCO4)cc1 -16.1%
COc1ccc(OC)c(NC(=O)c2cn3c4c(ccc(Cl)c4c2=O)OC(C)C3)c1 (stereo unspecified) -14.9%
CCOC(=O)C1CCN(c2nc(-c3ccc(Br)cc3)nc3ccccc23)CC1 -14.2%
Cc1ccc2c(c1)C(c1ccccc1)N(C(=O)c1ccc(OC(C)C)cc1)CC(=O)N2 (stereo unspecified) -26.7%
Cc1cccc(CCNC(=O)Cn2ncc3c(=O)oc4ccccc4c32)c1 -23.1%
Cc1c2cnn(-c3ccccc3)c(=O)c2c(C)n1CC(=O)NCc1ccccc1Br -8.39%
O=C(Nc1ccc(Cl)cc1)N1CCC(CN2CCCC2)CC1 -1.05%
CC(=O)c1cccc(NC(=O)C(Cc2ccccc2)NS(=O)(=O)c2ccc(Br)s2)c1 (stereo unspecified) -7.88%
CN(C)c1ccc(CNC(=O)CCCN2C(=O)CCn3nc(-c4cccn4C)cc32)cc1 -14.6%
CCN(CCCNC(=O)c1nn(-c2ccc(C)cc2)c(=O)c2c1c1ccccc1n2C)c1ccccc1 -18.1%
COc1c(Cl)cc(Cl)cc1/C=C(\C#N)c1nc2ccccc2[nH]1 4.86%
CCc1ccc(-n2c(=O)c3c(C)c(C(=O)N(C)C)sc3n(Cc3cccc(C)c3)c2=O)cc1 -10.2%
COc1cccc(CNC(=O)CCS(=O)(=O)c2cc3c(cc2C)NC(=O)CO3)c1 -11.3%
COc1ccc(C(=O)Nc2ccc(-c3cc4ccccc4oc3=O)c(C)c2)cc1Br -13.8%
Cc1ccc(C)c(N2CCN(C(=O)CCCn3ncn4c(cc5occc54)c3=O)CC2)c1 -22.2%
Cc1ccc(Cn2c(=O)n(Cc3nc(-c4ccccc4)no3)c(=O)c3cc4c(cc32)OCO4)cc1 4.46%
COc1ccccc1OCCCn1c(C2CC(=O)N(c3ccccc3Cl)C2)nc2ccccc21 (stereo unspecified) 7.83%
COc1ccc(C(=O)Nc2ccc3nc(SCc4ccc(C)cc4)sc3c2)cc1 -20.2%
Cc1coc2cc3oc(=O)c(CC(=O)NCc4ccc(F)cc4)c(C)c3cc12 -0.405%
COc1cc(-c2nc3sccn3c2Nc2cccc(C)c2)ccc1O -29.9%
Cc1ccc(O)c(-c2ccnc3cc(-c4ccc(Cl)cc4)nn23)c1 -6.88%
Cc1nc(-c2ccc(Cl)cc2)sc1CCNC(=O)c1ccco1 -2.98%
Cc1ccc(-n2c(=O)c3c4c(sc3n(Cc3ccccc3F)c2=O)CCC4)cc1C -20.1%
Oc1ccccc1-c1nc(/C=C/c2ccccc2Cl)no1 -10%
O=C(Nc1ccccc1)N1CCN(C(=O)c2nsc3ccccc23)CC1 5.88%
CC(=O)c1cccc(NC(=O)CCc2c(C)nc3c(-c4ccc(F)cc4)c(C)nn3c2C)c1 6.59%
Fc1cccc(F)c1-c1nc(-c2ccncc2)no1 -13.5%
Cc1cc(=O)n2nc(N3CCC(C(=O)Nc4ccc(C(C)C)cc4)CC3)sc2n1 -5.94%
COc1ccc(OC)c(NC(=O)Cn2cc(S(=O)(=O)c3ccccc3)c(=O)c3cc(C)ccc32)c1 -6.55%
CCCc1nc2sc3c(N4CCCCC4)ncnc3c2c2c1CCCC2 -13.5%
Cc1ccc(CCNC(=O)CCn2c(=O)c3cccn3c3ccc(F)cc32)cc1 4.18%
COc1cc(OC)cc(C(=O)Nc2cc3nn(-c4ccccc4)nc3cc2Cl)c1 -5.55%
O=C(NCc1ccc2c(c1)CCN2C(=O)c1ccc(F)cc1)c1ccc(Br)o1 -2.06%
COCCCN1C(=O)N(c2ccccc2)C(=O)C1CC(=O)Nc1ccc(F)cc1 (stereo unspecified) -7.55%
Cc1cc(C)c(NC(=O)Cn2nc3c(cc2=O)CCCC3)c(C)c1 -12.4%
COc1ccccc1NC(=O)N1CC(=O)Nc2sc3c(c2C1c1ccccc1)CCCC3 (stereo unspecified) -10.3%
O=C(Nc1ccc(S(=O)(=O)Nc2ccccc2)cc1)N1CCCC1 -16.3%
CCCS(=O)(=O)c1ncc(Cl)c(C(=O)N(Cc2ccccc2)Cc2ccco2)n1 -14.8%
Cc1ccc(S(=O)(=O)Nc2cc3c(cc2C)n(C)c(=O)c(=O)n3C)cc1 -12.7%
O=S1(=O)c2cccc3cccc(c23)N1CCCN1CCN(c2ccc(F)cc2)CC1 -26.9%
COc1ccc(-c2noc(-c3ccc(NCc4ccc(C)cc4)c([N+](=O)[O-])c3)n2)cc1OC -7.11%
Cn1c(=O)c2c(nc(SCC(=O)Nc3ccc(OC(F)(F)F)cc3)n2Cc2cccc(C(F)(F)F)c2)n(C)c1=O -51.8%
COc1ccc(-n2nc(C(=O)N3CCC(C)CC3)c3c4ccccc4n(C)c3c2=O)cc1Cl -7.88%
Cc1ccccc1NC(=O)CSc1nc(-c2ccc(F)cc2)c2cccc(C)c2n1 0.045%
O=c1[nH]c(=O)c2ccccc2o1 -12.9%
COc1cc(CNC(=O)c2cc(-c3ccccc3)n[nH]2)cc(OC)c1OC -17.5%
COc1cccc(CNC(=O)Cn2cc3c(n2)-c2c(oc(C(=O)N4CCCC4)c2C)CC3)c1OC -11%
CCc1nn(CC(=O)NCCc2ccc(OC)cc2OC)c(=O)c2cc3sccc3n12 16.8%
Cc1ccc(-c2onc(C)c2C)cc1S(=O)(=O)N1CCCCC1 4.48%
CCOC(=O)c1c(N)n(-c2ccc(C)c(C)c2)c2nc3ccccc3nc12 13.7%
Cc1ccc(CSC2=Nc3ccccc3C3=NC(CCC(=O)N4CCN(c5ccccc5)CC4)C(=O)N23)cc1 (stereo unspecified) -3.32%
CCOC(=O)c1sc2ccccc2c1S(=O)(=O)Nc1c(C)cccc1C -14.6%
Cn1nc(C(=O)NCc2ccccc2)c2c1-c1ccccc1SC2 -12.9%
O=C(Cn1c(=O)n(-c2ccc(F)cc2)c(=O)c2sc3ccccc3c21)N1CCCC1 -10.5%
Cc1cc(NC(=O)N2CC=C(c3c[nH]c4ccccc34)CC2)ccc1Br -23.7%
COc1cc(NC(=O)Cn2ncc3c(=O)oc4ccccc4c32)cc(OC)c1OC -17.6%
Cc1nc2c(cnn2-c2ccccc2Cl)c(=O)n1-c1ccc(C(C)C)cc1 -0.323%
CCc1ccc(S(=O)(=O)c2nnn3c2nc(NCCc2ccccc2)c2sccc23)cc1 -28.3%
COc1cccc(-c2nc(SCC(=O)Nc3ccc4c(c3)OCO4)c(-c3ccccc3)[nH]2)c1 -16%
CN(C)S(=O)(=O)N(CC(=O)NCCSCc1ccccc1Cl)c1ccccc1 -25%
CCCc1noc(-c2ccc(N3CCCCC3)c([N+](=O)[O-])c2)n1 -14.4%
COc1ccc(CCn2cc3c(c2-c2ccccc2Br)c(=O)n(C)c(=O)n3C)cc1OC -28.6%
Cc1cccc(N2CCN(S(=O)(=O)c3cc(Br)cc4c3N(C(=O)C3CC3)CC4)CC2C)c1 (stereo unspecified) -18.1%
CN1C(=O)Cc2cc(S(=O)(=O)CCC(=O)Nc3cccc(C(F)(F)F)c3)ccc21 -17.4%
CC(C)OCCCn1c(SCc2cccc(Br)c2)nc2c(sc3ccccc32)c1=O -13.1%
COc1ccc2c(Sc3ccccc3)c(C(=O)NCc3cccc(OC)c3OC)[nH]c2c1 -24.2%
CCOc1ccc(CCNC(=O)CCCc2nnc3n(CC(C)C)c(=O)c4sccc4n23)cc1 -12.9%
CCOC(=O)C1(C)C=C(Nc2ccc(C(N)=O)cc2)C(=O)N1c1ccccc1 (stereo unspecified) -12.6%
CCOC(=O)c1cc(S(=O)(=O)Nc2ccc(OC)c(Cl)c2)[nH]n1 -1.84%
Cc1ccc(OC(=O)c2cc(-c3ccccc3)nc3ccc(C)cc23)cc1 -17.5%
COCCNC(=O)c1ccc2c(c1)N(Cc1cccc(Cl)c1)C(=O)c1ccccc1S2(=O)=O -12%
COc1ccccc1Oc1nc2c(c(=O)n(C)c(=O)n2C)n1Cc1cccc(Br)c1 -14.9%
CC(=O)N1c2ccc(S(=O)(=O)NCC3CCC(C(=O)NCCC(C)C)CC3)cc2CC1C (stereo unspecified) 10.5%
CCc1ccc(OC(=O)CSc2nnc(-c3ccc4c(c3)OCO4)o2)cc1 -5.16%
CCS(=O)(=O)N1CCc2cc(C(=O)N3CCN(c4cccc(C(F)(F)F)c4)CC3)ccc21 -1.55%
Cc1ccc(NC(=O)C(=O)NCC(c2cccnc2)N2CCOCC2)cc1C (stereo unspecified) -12.9%
Cc1ccc(C)c(Cn2c(=O)c3c(nc4n3CCN4c3ccc(F)cc3)n(C)c2=O)c1 0.483%
CCn1c(CN2CCC(C)CC2)nc2cc(NC(=O)c3ccccc3[N+](=O)[O-])ccc21 -16.4%
CC(=O)NCCNC(=O)CCCc1nnc2n(CCC(C)C)c(=O)c3sccc3n12 -8.77%
CCOC(=O)c1c(C)[nH]c(CCC(=O)NCCCN2CCN(c3cccc(Cl)c3)CC2)c1C -14.8%
